Source: PubChem BioAssay AID493208 (National Center for Advancing Translational Sciences (NCATS), 2011)
The campaign covered roughly 44,000 compounds. About 340 (0.77%) were called active. Not shown: some 5% with an inconclusive outcome. The call rests on the fitted dose curve; in most records, active means well fitted inhibition curve with a large enough effect; inconclusive means small, poorly fitted or top-dose-only effect; inactive means flat fitted curve, though single readings scatter. Some of the results follow.

Test: Acumen qHTS Assay for Inhibitors of the mTORC1 Signaling Pathway in MEF (Tsc2-/-, p53-/-) Cells: Sytravon;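 further: plate controls were DMSO for no effect and rapamycin for full effect; nearly all actives have a fitted effect of over 50% in size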
Details: phospho-rpS6 immunofluorescence/PI, 24 h; series mostly up to 38.3 µM; activity change, negative = inhibition: at the top concentration
Outline: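 Tsc2-/-, p53-/- mouse embryonic fibroblasts (empty-vector line) exposed to compound 24 hrs at 37 C, fixed, immunostained for phospho-rpS6 and counterstained with propidium iodide. Acumen laser scanning gives % positive cells from Alexa 488/PI ratio, thresholded using 7.5 nM rapamycin; PI count gives viability.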

Activity change, negative = inhibition, inactive:
CCOC(=O)C1=C(C(F)(F)F)Nc2ncnn2C1c1cccc(OC)c1OC (stereo not given) 0.758%
CC1=C(c2ccc(C)c(C)c2)S(=O)(=O)N=C1N1CCC(C(=O)N2CCCCC2)CC1 0.696%
CCOc1ccc(CNC(=O)CCc2cn(CC)c3ccccc23)cc1 -4.62%
CCc1ccc(NC(=O)C2CCN(S(=O)(=O)c3c(C)noc3/C=C\c3ccc(OC)cc3)CC2)cc1 -11.9%
COc1cc(C(=O)Nc2ccc(OCc3cc(=O)n4cccc(C)c4n3)cc2)cc(OC)c1OC -21%
O=C(NCCc1ccccc1)c1ccc(CSc2nc3ccncc3n2Cc2cccc(F)c2)cc1 -4.19%
CCN(CC)C(=O)c1sc2c(c1C)c(=O)n(CCc1ccccc1)c(=O)n2Cc1cccc(Cl)c1 -0.315%
COc1ccc(-n2nc(C(=O)NCc3ccc(F)cc3)c3c4ccccc4n(C)c3c2=O)cc1 3.57%
O=C(c1cnc(N2CCOCC2)c2ccccc12)N1CCN(c2ccccc2F)CC1 -18.9%
CN(C)c1ccc(CNC(=O)c2ccc3c(c2)N(C)C(=O)C2CCCCN32)cc1 (stereo not given) 0.0904%
CCOc1ccccc1N1CC(c2nc3ccccc3n2CCCCOc2cc(C)ccc2C)CC1=O (stereo not given) -10.6%
COc1cc(NC(=O)CSc2ccc(-c3sc(-c4ccccc4)nc3C)nn2)cc(OC)c1 -5.94%
CCCc1cc(=O)[nH]c2nnc(SCCC(C)C)n12 -1.01%
COC(=O)c1c(NC(=O)COc2ccc(OC)cc2)sc2c1CCC(C)C2 (stereo not given) 3.87%
Cc1cc(C)cc(OCCSc2nc(-c3ccc(C(C)(C)C)cc3)nc3cc(=O)[nH]n23)c1 0.0619%
CC(C)Oc1ccc(CNC(=O)C2CCCN(S(=O)(=O)c3ccc4c(ccn4C)c3)C2)cc1 (stereo not given) -3.7%
CCCn1cc(S(=O)(=O)c2ccc(OC)cc2)c(=O)c2cc(F)c(N3CCCCCC3)cc21 1.44%
CCn1cc(S(=O)(=O)c2ccc(C)cc2C)c(=O)c2cc(F)c(N3CCCC3)cc21 -7.63%
Cc1ccc(CSc2nnc3[nH]c(=O)cc(C)n23)cc1 -5.26%
COc1ccc(CN2CCN(S(=O)(=O)c3ccccc3)CC2)c(OC)c1 -5.2%
CCCN1C(=O)C2(c3ccccc31)c1c(oc3cc(C)c(C)cc3c1=O)C(=O)N2CCCOC (stereo not given) -2.46%
CCC(=O)N1c2ccccc2CC1C(=O)NCCc1ccc(OC)cc1OC (stereo not given) 0%
COc1ccc(OC)c(NC(=O)[C@H](Cc2ccccc2)N2Cc3ccccc3C2=O)c1 0.856%
Cc1c(C(=O)Nc2cccc(C(F)(F)F)c2)oc2ccc(S(=O)(=O)N(C)C3CCCCC3)cc12 8.66%
O=C(CC1C(=O)N(c2ccccc2)C(=O)N1CCc1cccs1)Nc1ccc(Cl)cc1 (stereo not given) 2.12%
CCNC(=O)c1ccc(-n2c(-c3ccccc3)cc3c2CCCCC3)cc1 -2%
COc1cccc(CNC(=O)CCc2c(C)nn(-c3ccc(N4CCOCC4)nn3)c2C)c1 -0.541%
CCOC(=O)CNc1ncnc2c1nnn2C 0.234%
CC(=O)Nc1nonc1-c1nnc(SCc2ccc(C)cc2)n1C -19.1%
CCCNC(=O)c1c2c(nc3ccccc13)C(=O)N(C1CCCCC1)C2 -10.2%
Cc1cccn2c(=O)c(/C=C(\C#N)c3nc4ccccc4n3C)c(Oc3ccc(Cl)cc3)nc12 4.67%
CCCc1cc(=O)[nH]c2nnc(SCC(=O)Nc3cccc(C)c3)n12 1.28%
COc1ccc(OC)c(NC(=O)c2nc(SCc3ccccc3F)ncc2Cl)c1 2.18%
COc1cccc(NC(=O)C2CCCN2S(=O)(=O)c2ccc3c(c2)n(C)c(=O)c(=O)n3C)c1 (stereo not given) 8.85%
O=C(Cn1c(=O)oc2cc(S(=O)(=O)NCc3ccccc3)ccc21)N(CCO)Cc1ccccc1 0.654%
CCc1cccc(-n2c(=O)c3cccnc3n2CC(=O)Nc2ccccc2C(=O)OC)c1 2.2%
CCC1CN(C(=O)Nc2cc(OC)cc(OC)c2)c2ccccc2S1 (stereo not given) -0.633%
CCOc1ccc(NC(=O)c2ccc3nc(Cc4ccccc4)oc3c2)cc1 -0.0481%
Cc1ccc2oc(C(=O)Nc3sc4c(c3C(=O)NCc3ccccc3)CCCC4)cc(=O)c2c1 4.77%
Cc1ccc(OCC(=O)OCc2cc(=O)n3c(C)csc3n2)cc1 0.0722%
Cc1ccccc1NC(=O)N1CCC(CN2CCCC2)CC1 -6.51%
COc1ccc(-n2nc3cc(C)c(NC(=O)c4ccc(C)cc4C)cc3n2)cc1Cl 3.15%
N#CC1=C2SCN(C3CCCCC3)CN2C(=O)CC1c1ccc(F)cc1 (stereo not given) -13.8%
Cc1ccc(-c2c(C)n3c4c(=O)n(C)c(=O)n(C)c4nc3n2CCCO)cc1 -4.55%
O=C(CCn1cnnn1)Nc1ccccc1 -4.59%
O=C(CSc1nc2c([nH]c3ccccc32)c(=O)n1-c1ccccc1)Nc1ccccc1F -13.7%
CCOC(=O)c1ccccc1NC(=O)Cn1c(=O)n(Cc2ccc(C(=O)NCc3ccc4c(c3)OCO4)cc2)c(=O)c2ccccc21 -0.447%
COc1ccc(C(=O)Nc2cccc(-c3nc4cccnc4s3)c2C)c(OC)c1 -15.5%
CC(=O)N1c2c(cc(Br)cc2S(=O)(=O)Nc2ccccc2C)CC1C (stereo not given) -1.33%
Cc1cccc(C(=O)NC(=O)Nc2ccc(-n3nc(C(F)(F)F)cc3C(F)(F)F)cc2)c1 -3.83%
Cc1c2cnn(CC(=O)NCc3ccc(F)cc3)c(=O)c2c(C)n1Cc1ccccc1Cl -6.99%
COc1ccc(-c2nc(C)c(CCNC(=O)c3ccccc3Br)s2)cc1OC -1.03%
COc1cccc(Cn2cnc3c2c(=O)n(C)c(=O)n3C)c1 -1.03%
O=C(Nc1cccc(C(F)(F)F)c1)c1ccc(F)c(S(=O)(=O)N2CCc3ccccc3C2)c1 3.11%
COCCCNC(=O)C1CCN(c2ncnc3c2nc2n3CCCCC2)CC1 5.33%
CCOc1cc(Br)c(C2C(C(=O)OC)=C(C)NC3=C2C(=O)c2ccccc23)cc1OCC (stereo not given) -6.7%
CC(=O)N1CCCc2cc(S(=O)(=O)N3CCC(N(C)C(C)C)CC3)ccc21 0.293%
Cc1nc2c(C(=O)NCCC(C)C)cnn2c(C)c1Cc1c(F)cccc1Cl 1.99%
COc1ccc2c(c1)c1c(c(=O)n(-c3ccc(C)cc3)c(=O)n1CC(=O)Nc1cc(C)ccc1C)n2C -11.2%
CCC(C)NC(=O)C1CCN(S(=O)(=O)c2ccc3c(ccn3CC)c2)CC1 (stereo not given) 1.22%
COc1cccc2sc(N(Cc3cccnc3)C(=O)c3ccc(S(=O)(=O)N(C)C)cc3)nc12 -0.117%
O=C(O)c1ccccc1NC(=O)N1c2ccccc2Sc2ccccc21 9.11%
CCOC(=O)C1CCCN(C(=O)C2CCN(S(=O)(=O)c3c(C)noc3/C=C/c3ccc(C)cc3)CC2)C1 (stereo not given) -2.5%
COc1ccccc1CNC(=O)c1cc2cc(S(=O)(=O)N3CCCCC3)ccc2n1C -1.98%
CC1CCCN(Cc2c(O)ccc3c(=O)c(-c4ccc(Cl)cc4)c(C(F)(F)F)oc23)C1 (stereo not given) -0.0856%
COc1cc2c(cc1OC)C(c1cc(OC)c(O)c(OC)c1)CC(=O)N2 (stereo not given) 14.9%
Cc1cc(C)cc(N2C(=O)CS(=O)(=O)C23C(=O)N(Cc2ccccc2)c2ccccc23)c1 (stereo not given) -8.51%
Cc1cc(OCC(=O)Nc2ncn[nH]2)c(C)c(C)c1Br -2.06%
COc1ccc(-c2cc(C(F)(F)F)nc(SCC(=O)Nc3ccc(C(C)=O)cc3)n2)cc1 -4.45%
COc1nnc(-c2ccc(N3CCCCC3)c(NC(=O)c3ccc(Cl)cc3)c2)c2ccccc12 -0.176%
CCc1cc(=O)[nH]c(SCc2nc(-c3ccccc3C)no2)n1 -17.8%
CCOC(=O)C1CCN(c2ncnc3c2c(-c2ccccc2)cn3-c2ccc(C)c(Cl)c2)CC1 11.7%
COc1ccc(OC)c(NC(=O)c2nc(SCc3ccc(F)cc3)ncc2Cl)c1 1.45%
O=C(NCCc1csc(-c2ccc(F)cc2)n1)C(=O)Nc1ccc(Cl)cc1 -7.68%
CCC(=O)N1c2ccc(S(=O)(=O)NCCc3ccccc3)cc2CC1C (stereo not given) -4.54%
O=C(/C=C/c1cn(CC(O)CN2CCc3ccccc32)c2ccccc12)c1ccc(Br)cc1 (stereo not given) -17.5%
COC(=O)c1ccccc1NC(=O)N(Cc1ccc(C)cc1)Cc1cccn1-c1nnc(N2CCCC2=O)s1 -0.0801%
CCOC(=O)c1[nH]c(C)c(CCC(=O)NCc2ccc(OC(C)C)cc2)c1C -1.64%
COc1ccc(C)cc1NC(=O)C1CCN(S(=O)(=O)c2cccc3nonc23)CC1 -20.1%
Cc1ccc(CNS(=O)(=O)c2c(C(=O)N3CCC(C)CC3)c(C)n(C)c2C)cc1 3.61%
Cc1cc(Nc2cccc(O)c2)c2cccc(Br)c2n1 -0.81%
Cc1sc2ncn(CC(=O)Nc3ccc(C(F)(F)F)cc3)c(=O)c2c1S(=O)(=O)N1CCN(C)CC1 -3.06%
Cc1cccc(NC(=O)CSc2nnc3c4ccccc4n(C)c3n2)c1 -1.96%
CCc1ccc(S(=O)(=O)c2cn(CC(=O)Nc3cccc(C)c3)c3ccc(Cl)cc3c2=O)cc1 1.38%
Cc1cc(/C=C(\C#N)C(=O)Nc2ccccc2)c(C)n1-c1ccc(F)cc1 0.374%
COC(=O)c1ccccc1NC(=O)c1sc2nc(C)cc(C)c2c1NC(=O)c1ccccc1Cl -11.6%
COc1ccc(NC(=O)c2cc(C(C)=O)n3ccccc23)cc1Cl -4.54%
COc1ccc2c(CNCc3cccs3)c(C(=O)O)n(Cc3cccc(F)c3)c2c1 -8.33%
COc1ccc(NC(=O)c2ncoc2-c2ccco2)cc1Cl 0%
CCOC(=O)c1cccc(NC(=O)C2CCN(S(=O)(=O)c3c(C)noc3/C=C/c3ccc(C)cc3)CC2)c1 -4.88%
O=C(Cc1ccccc1)Nc1sc2c(c1C(=O)Nc1ccccc1Cl)CCCC2 8.27%
COc1cc(NC(=O)c2nc(-c3ccc(Cl)cc3)n3c2CCCCC3)cc(OC)c1OC -5.88%
Cc1cccc(C(=O)Nc2ccc3nc(SCC(=O)N4CCc5ccccc54)sc3c2)c1 -9.14%
COc1ccc(OC)c(-c2nnc3n(CCc4ccccc4)c(=O)c4ccccc4n23)c1 -0.238%
COc1ccc(CNC(=O)Cn2ccc3cc(S(=O)(=O)N4CCCC4)ccc32)c(OC)c1 0.978%
